Test results from ChEMBL document CHEMBL4888484, “Replenishing the malaria drug discovery pipeline: Screening and hit evaluation of the MMV Hit Generation Library 1 (HGL1) against asexual blood stage Plasmodium falciparum ,using a nano luciferase reporter read-out” (2022).
In all, about 150,000 compounds went through this assay and about 540 (0.36%) showed an effect of 50% or more. Some of the results follow.

The compounds below were run on Plasmodium falciparum (assay: Primary screen in NF54 nanoGlo assay, in single point, at 2uM, 72h; a lower Z score goes with more inhibition). Details: timepoint 72 hour.
Assay type: functional, Erythrocyte

| SMILES | % Inhibition [%] | Z score |
| --- | --- | --- |
| Cc1ccc(S(=O)(=O)N2CCOCCOCCOCCOCCOCC2)cc1 | -17 | 1.98 |
| Cc1oncc1C(=O)Nc1ccc2c(c1)CCC(=O)N2 | -3 | 0.64 |
| Cc1nonc1CN(Cc1nc(-c2cccnc2)no1)C(C)C | -4 | 0.51 |
| CN1C(=O)c2ccccc2O[C@H]2CN(Cc3ccccc3)C[C@H]21 | -9 | 1.36 |
| CCC(CC)CN1C[C@]23C=C[C@H](O2)C(C(=O)N2CC(N4CCOCC4)C2)C3C1=O (stereo partly drawn) | -13 | 1.68 |
| Cc1ccc([N+]2=C3CCCCCN3C[C@]2(O)c2ccc(OC(F)F)cc2)cc1 | -12 | 1.97 |
| COCc1noc([C@H]2CN(CCc3ccccc3)CC23CCCC3)n1 | 1 | -0.16 |
| NC(=O)c1cnc2n1CCN(C(=O)c1scc3c1OCCO3)C2 | -7 | 1.38 |
| Cc1ccc(NC(=O)C2=CCN(Cc3ccc(F)cc3)CC2)cc1 | 3 | -0.39 |
| CC(C)n1ccc(CNC(=O)[C@H]2CC2(C)C)n1 | -7 | 1.33 |
| C[C@H](NC(=O)CC1=CCCCC1)c1ccc(S(C)(=O)=O)c(F)c1 | -4 | 0.68 |
| Cc1nc([C@H](C)NC(=O)c2ccn(C)c2C)c(C)s1 | -10 | 1.39 |
| CC(C)(C)OC(=O)N1CCNC(=O)CC1(C)C | -1 | 0.16 |
| CC(C)(c1ccccc1)c1nnc(NC(=O)[C@@H]2C[C@H]3CC[C@@H]2O3)s1 | -4 | 0.64 |
| CC(C)N(C(=O)c1cncc(F)c1)c1ccc(Br)cn1 | -2 | 0.29 |
| O=S(=O)(Cc1ccccc1)N[C@H]1CCc2c(O)cccc21 | 5 | -0.73 |
| O=c1nc(N[C@@H](Cc2ccccc2)c2ccccc2)[nH]c2[nH]ncc12 | -4 | 0.55 |
| CNC(=O)C(C)(C)CNc1ccnc(C#N)c1 | -10 | 1.72 |
| C[C@H](Oc1ccc(NC(=O)c2cc(C(C)(C)C)n[nH]2)cc1F)C(=O)O | -9 | 1.41 |
| CCCn1c(C)nnc1CN(CCO)[C@@H](C)C1CCCCC1 | -2 | 0.27 |
| Cc1n[nH]c(C)c1NC(=O)CNC1CCOC1c1ccc(Cl)cc1 (stereo not drawn) | -4 | 0.64 |

| SMILES | % Inhibition [%] | Z score |
| --- | --- | --- |
| Cc1nc(C)c(CNC[C@@](C)(CO)c2ccccc2)s1 | -40 | 4.67 |
| Cn1nnnc1[C@H]1CCCN(C(=O)NC2CCCCC2)C1 | 5 | -0.74 |
| O=C(OCc1nnc(-c2ccccc2C(F)(F)F)o1)C1(O)CCCCC1 | -8 | 0.88 |
| CC(C)CNC(=O)[C@@H]1Cc2[nH]cnc2C2(CCN(Cc3ccsc3)CC2)N1 | -9 | 1.46 |
| CC[C@@]1(c2cnn(C)c2)NC(=O)N(Cc2ccnn2C)C1=O | 2 | -0.28 |
| Cc1nccn1-c1ncnc2c(F)cccc12 | -11 | 1.45 |
| N#Cc1ccc(Cl)c(Br)c1 | -12 | 1.52 |
| CCC(CC)(CCC#N)CN1CCN(C)[C@@H](C)C1 | -2 | 0.31 |
| CO[C@@]12CC[C@@H](O)C[C@@H]1N(Cc1ccccc1OCCO)CC2 | 6 | -0.95 |
| Nc1c(F)cc(Cl)cc1C(=O)NCCC(F)(F)F | -4 | 0.37 |
| O=C(O[C@@H](c1ccccc1)N1C(=O)C(C(F)(F)F)(C(F)(F)F)c2ccccc21)C(C(F)(F)F)C(F)(F)F | 31 | -1.14 |
| Cn1cc(C2=CCCN(S(=O)(=O)c3ccc(Cl)cc3)C2)cn1 | -13 | 1.5 |
| Cc1noc(C)c1-c1n[nH]c2c1CN(Cc1nc3cccnc3n1C)CC2 | -1 | 0.16 |
| Cc1cc(C)n(CCCN[C@H]2CCCN(CCCc3ccccc3)C2)n1 | -7 | 0.97 |
| O=C1CNC[C@@H](C(=O)N2CCC(c3ccccc3)(c3ccccc3)CC2)N1 | 5 | -0.93 |
| O=C(Cn1nc(N2CCCCCC2)c2ccccc2c1=O)Nc1ccccc1F | -8 | 1.39 |
| CCOC1CC(CC(=O)N2c3ccncc3N3CCC2C3)C1 (stereo not drawn) | 4 | -0.55 |
| COc1ccc(OC)c([C@H](C)Nc2ccc(C(N)=O)nn2)c1 | -15 | 2 |
| CC1COC(c2ccccc2)CN1C(=O)CCc1ccc(C(=O)O)cc1 (stereo not drawn) | 2 | -0.32 |
| CCCc1oncc1C(=O)N1CCC[C@H](N2CCc3ccccc3C2)C1 | -21 | 3.89 |
| COC[C@H](NCc1nncn1C)c1ccc(C)o1 | -2 | 0.29 |

| SMILES | % Inhibition [%] | Z score |
| --- | --- | --- |
| Cc1nc(-c2cnccn2)nc2c1CC(=O)N2C[C@H]1CCCO1 | -19 | 2.66 |
| CC(C)C[C@@H]1N[C@H](C(=O)O)Cc2cn(Cc3nccn3C)c3cccc1c23 | -3 | 0.4 |
| CC(C)(C)CC(=O)Nc1nc2c(s1)C[C@@H]1[C@](C)(CO)[C@H](O)CC[C@@]1(C)[C@@H]2CC(=O)NC1CCCC1 | -4 | 0.8 |
| OC[C@H](CC1OCCO1)Nc1ccnc(Cc2ccccc2)n1 | 0 | -0.03 |
| CN(CCNc1nc(-c2cccnc2)nc2c1cnn2C)S(C)(=O)=O | 0 | 0.06 |
| COc1ccc(NC(=O)CS(=O)(=O)Cc2cccnc2)cc1OC(F)F | -18 | 1.64 |
| O[C@@H](CNCc1cccnc1)COc1cccc2ccccc12 | -2 | 0.21 |
| CCn1cc(CCN2CCN(c3nccc4sccc34)CC2)cn1 | 5 | -0.64 |
| c1ccc2oc(CN3CCN4CCC[C@H]4C3)cc2c1 | -9 | 1.35 |
| CCC(C)(C)C(=O)N1CCN(c2ccc(NC(=O)c3ccco3)cn2)CC1 | -17 | 2.33 |
| C[C@H]1CCN(Cc2nc(N)nc(N(C)C)n2)c2ccccc21 | 9 | -1.24 |
| Cc1n[nH]cc1CN[C@H]1CCN(Cc2ccccc2)c2ccccc21 | 17 | -2.17 |
| CC(C)n1cnnc1CNC(=O)c1nn(C)cc1Cl | -10 | 1.88 |
| COc1ccc(N2CCN(C(=O)c3cnn(C)c3C3CCN(C(=O)OC(C)(C)C)CC3)CC2)cc1 | -9 | 1.42 |
| COc1cc(NS(=O)(=O)CCNS(=O)(=O)c2ccccc2)c(OC)cc1Cl | 0 | -0.04 |
| CCNc1ccnc(NCC(=O)NC(C)(C)C)n1 | -5 | 0.94 |
| O=C(NOCc1ccccc1)[C@H]1CC1(Cl)Cl | 1 | -0.18 |
| Cc1nc2c(c(=O)[nH]1)CCN(c1ncccc1C(=O)N1C[C@@H]3CC[C@H]1C3)CC2 | -11 | 2.11 |
| COc1ccc(N2CCCC2=O)c(NC(=O)Cn2cnc3ccccc3c2=O)c1 | 12 | -1.49 |
| Cc1ccccc1-c1ccc(C(=O)NC2CCOCC2)nc1 | 0 | 0.01 |
| O=C(CCn1cncn1)N1CCN(Cc2ccc(-c3cccc(Cl)c3)s2)CC1 | 11 | -1.55 |

| SMILES | % Inhibition [%] | Z score |
| --- | --- | --- |
| CN(CCc1ccccc1)[C@H]1CCCN(Cc2cccc3cccnc23)C1 | -10 | 1.81 |
| N#CCCN1CCN(c2cc(C(=O)O)c3cc(NC(=O)COc4ccccc4)ccc3n2)CC1 | -7 | 0.81 |
| CCCc1cc(C(=O)N(Cc2ccco2)C2CCN(C)CC2)no1 | -6 | 0.77 |
| CCC(C)C(CO)NC(=O)c1cccc[n+]1[O-] (stereo not drawn) | -17 | 1.47 |
| Cc1ccc2ncc(-c3cncc(N)c3)cc2c1 | -2 | 0.41 |
| CCN(CC(=O)Nc1ccc(NC(C)=O)cc1)Cc1cc(Cl)cc2c1OCOC2 | -20 | 2.78 |
| CCCc1cncnc1N[C@H]1CCOC[C@@H]1OCCN(C)C | -1 | 0.25 |
| COc1ccccc1CCNC(=O)c1csc(NC2CC2)n1 | -3 | 0.34 |
| CNc1cc([C@H]2C[C@@H](NC(=O)C3=Cc4ccccc4OC=C3)C2)ncn1 | -17 | 3.15 |
| CCCNC(=O)C1C(c2cccc(NC(=O)c3cccc(Cl)c3)c2)OC(=O)N1Cc1ccc(C)cc1 (stereo not drawn) | -8 | 1.28 |
| CN(CC(=O)Nc1cc(S(=O)(=O)N2CCCC2)ccc1Cl)Cc1cccs1 | 4 | -0.5 |
| CC(=O)N1CCc2c(NC(=O)NC[C@H]3CCCS3(=O)=O)cccc21 | 9 | -1.83 |
| COc1ccc2c(=O)c(C(=O)c3ccncc3)cn(CC(=O)Nc3c(C)cccc3C)c2c1 | 3 | -0.42 |
| CCNC(=O)[C@H]1CCN(CC(=O)NC2CCCCCCC2)C1 | -1 | 0.28 |
| CCOCC(=O)N[C@H]1CC(=O)Nc2ccccc21 | -11 | 1.52 |
| COC(=O)C1CCN2C(=O)N(c3ccc(F)cc3C)C(=O)C2C1 (stereo not drawn) | -15 | 2.31 |
| CS(=O)(=O)c1ccsc1NC(=O)C[C@H](n1cccn1)C(F)(F)F | -10 | 0.98 |
| COCC[C@H](NC(=O)COc1cc(C)ccc1C)C(N)=O | -27 | 2.75 |
| COc1ccccc1-c1c(Cc2ccccc2)nn2c(C(F)(F)F)cc(-c3cccs3)nc12 | -9 | 1.67 |
| Cc1nc2ccccc2n1Cc1cc(C(=O)N(C)Cc2cccnc2)no1 | -4 | 0.58 |
| Cc1nc(NS(=O)(=O)c2ccccc2)sc1C(=O)NCc1ccco1 | 4 | -0.49 |
